This list was built around the results that the source calls inconclusive (neither active nor inactive); the mix of calls is not that of the screen. Potencies of inconclusive entries are left out as doubtful fits. Active and inactive are the calls of the source. Calls come from the whole dose curve; as a rule, active = well fitted inhibition curve with a large enough effect; inconclusive = small, poorly fitted or top-dose-only effect; inactive = flat fitted curve, though single readings scatter.
Each compound was assayed against Phospholipid hydroperoxide glutathione peroxidase GPX4 (Homo sapiens) (UniProt P36969) (assay: Primary qHTS Assay for Inhibitors of Recombinant Selenoprotein Glutathione Peroxidase 4 (GPX4) (AID 1845192; note: nearly all actives have a fitted effect of over 65% in size)). Settings: recombinant GPX4, GR-coupled NADPH fluorescence, 15 min; activity change, negative = inhibition: at 50 µM (top of the series); series mostly up to 50 µM.
Chain of UniProt P36969 (P36969 whole entry, looked up): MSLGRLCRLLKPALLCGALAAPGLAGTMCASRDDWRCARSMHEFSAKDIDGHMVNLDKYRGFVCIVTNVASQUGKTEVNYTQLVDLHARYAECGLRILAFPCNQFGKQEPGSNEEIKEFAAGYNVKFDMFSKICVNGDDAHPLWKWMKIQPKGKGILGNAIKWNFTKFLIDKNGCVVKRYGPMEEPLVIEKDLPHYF
In short: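 GR-coupled readout: 100 nM GR, 1 mM GSH, 0.5 mM NADPH; NADPH fluorescence (ex 340/em 450 nm) read at t=0 and after 15 min RT. GPX4 200 nM, preincubated 30 min with compound; substrate 0.5 mM CHP.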
CCCC(=O)OC[C@@H](OC(=O)CCC)[C@@H](OC(=O)CCC)[C@H](Cn1c2nc(=O)[nH]c(=O)c-2nc2cc(C)c(C)cc21)OC(=O)CCC was tested, and the Potency was inconclusive [inhibitor, full curve]. For O=C(O)CCC(=O)c1ccc(-c2ccccc2)cc1, the “activity change, negative = inhibition” value was inactive: -1.41%. O[C@@H](COc1cccc2ncccc12)CN1CCN(C2c3ccccc3[C@@H]3[C@H](c4ccccc42)C3(F)F)CC1 (stereo not given in full) was tested, and the Potency was inconclusive [inhibitor, partial curve]. CC1=C(CC(=O)O)c2cc(F)ccc2/C1=C\c1ccc(S(C)=O)cc1 (stereo not given) was tested, and the Potency was inconclusive [inhibitor, partial curve, poor fit]. For Cc1nc(-c2ccc(OCC(C)C)c(C#N)c2)sc1C(=O)O, the Potency was inconclusive [inhibitor, single point].

From PubChem BioAssay (NCATS)
% is set by controls: 0 for no effect and ±100 for the full control effect; potency is the fitted concentration of half-maximal effect; tags give direction and shape of the fitted curve.
